From PubChem BioAssay AID1671193 (National Center for Advancing Translational Sciences (NCATS), 2021)
“And” between values parts separate entries of the source, which are not always exact repeats. Equal entries are not always repeated. The campaign covered roughly 150,000 compounds. About 180 (0.12%) were called active. This list was built around the results that the source calls inconclusive (neither active nor inactive); the mix of calls is not that of the screen. Calls come from the whole dose curve; as a rule, active = well fitted cell-killing curve with a large enough effect; inconclusive = small, poorly fitted or top-dose-only effect, or effect the other way; inactive = flat fitted curve, though single readings scatter. Where the call is inconclusive, the potency comes from a doubtful curve fit.

Assay: GF-AFC viability counterscreen for inhibitors of alpha-synuclein gene (SNCA) expression; note: nearly all actives have a fitted effect of over 30% in size;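 for activity change, negative = cytotoxicity: 0% = DMSO-treated cells and -100% = medium-only wells without cells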
Conditions: HEK-293-SNCA-luc viability, GF-AFC fluorescence, 24 h; activity change, negative = cytotoxicity: at 57.1 µM (top of the series) unless noted
How it was run: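 HEK-293-SNCA-luc cells (1500/well) plated 24 h, then exposed 24 h to a dilution series; GF-AFC added 30 min at 37C, fluorescence 405/540 nm; normalised to medium-only and DMSO wells, Hill fit.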
Potency is the fitted concentration of half-maximal effect; tags give direction and shape of the fitted curve.

Compound	Potency	activity change, negative = cytotoxicity
COc1ccccc1N1CCN(CCCNC(=O)c2cnn(-c3ccc(C)c(C)c3)c2C2CCN(C(=O)OC(C)(C)C)CC2)CC1	inconclusive: 39.8 µM [cytotoxic, single point]	–
Cc1ccc(CSc2ncc(Cl)c(C(=O)Oc3ccc(F)cc3)n2)cc1	inactive	–
C[C@H](C(=O)N1CCOCC1)C1CC[C@@]2(C)Cc3sc(-c4ccccc4)nc3[C@@H](C)[C@@H]2[C@H]1O (some centres not stated)	inactive	–
COCCn1c(=O)cnc2cnc(N3CCOCC3)nc21	inconclusive: 28.2 µM [cytotoxic, partial curve, poor fit]	–
O=C(NC1CC1)c1ccc2nnc(C3CC3)n2c1	inactive	–
CCCc1cc(C(=O)N2CCCC(Cc3ccccc3F)(C(=O)OCC)C2)n(C)n1 (configuration not stated)	inconclusive: 28.2 µM [cytotoxic, single point]	–
Cn1cc(CN2Cc3c(cc(N4CCOCC4)nc3-c3cccc(F)c3)C2=O)cn1	inactive	–
COc1cccc(CN2CCOCCNC(=O)CC2)c1	inconclusive: 1 µM [rising, full curve, poor fit]	–
O=c1c(-c2cc(F)cc(F)c2)nc2cnc(N3CCNCC3)nc2n1C1CC1	inconclusive: 31.6 µM [rising, single point]	–
CC(=O)N1CCCN(Cc2nc(-c3cccc(C(F)(F)F)c3)oc2C)CC1	inconclusive: 1 µM [rising, full curve, poor fit]	–
CCOc1ccc(C(=O)c2cn(Cc3ccccc3)c3c(F)cc(F)cc3c2=O)cc1	inconclusive: 10 µM [cytotoxic, partial curve]	–
Cc1ccc(C2C=C(c3ccc(F)cc3)Nc3nc(CCCO)nn32)cc1 (configuration not stated)	inconclusive: 28.2 µM [rising, partial curve]	–
O=C(Nc1c(-c2ccc(F)cc2)nc2ccccn12)c1cccc(F)c1	inconclusive: 3.16 µM [cytotoxic, full curve]	–
COc1ccc([C@H]2Cc3cccc(O)c3C(=O)O2)cc1OC	inactive	–
CCS(=O)(=O)N1CCC(Nc2cccnc2)C1 (configuration not stated)	inactive	–
COc1ccc(NC(=O)c2cc(S(=O)(=O)NCCC3=CCCCC3)ccc2F)cc1	inconclusive: 15.8 µM [cytotoxic, single point]	–
O=C(Nc1cccnc1)c1ccc2c(c1)OCCN(c1cccc(OC(F)(F)F)c1)C2	inconclusive: 39.8 µM [cytotoxic, partial curve, poor fit]	–
O=C(Nc1cc(C(F)(F)F)cc(C(F)(F)F)c1)c1cc(Cl)ccc1O	inconclusive: 3.83 µM [cytotoxic, full curve] and inconclusive: 1.89 µM [cytotoxic, full curve]	–
COc1cc(CNCCc2ccc(F)cc2)ccc1OCC(O)CN1CCSCC1 (configuration not stated)	inconclusive: 17.8 µM [cytotoxic, partial curve, poor fit]	–
Cc1ccccc1CC(=O)NCc1nnc2cc(-c3nc(C4CC4)no3)ccn12	inconclusive: 39.8 µM [rising, single point]	–
CC(C)CCC[C@@H](C)[C@H]1CC[C@H]2[C@@H]3CC=C4C[C@@H](OC(=O)NCCN(C)C)CC[C@]4(C)[C@H]3CC[C@]12C	inactive	–

Compound	Potency	activity change, negative = cytotoxicity
CCCNC(=O)C1CCC(Cn2c(=O)c3sccc3n(CC(=O)N3CCCC(C)C3)c2=O)CC1 (configuration not stated)	inconclusive: 3.55 µM [cytotoxic, partial curve, poor fit]	–
COc1ccc2nc(C[C@@H]3C[C@@H](C(C)C)[C@H](CNC4CCCCC4)C=C3C)[nH]c2c1	inconclusive: 31.6 µM [cytotoxic, single point]	–
COc1cccc(C(=O)Nc2ccc(-c3nc4ccc(C)cc4s3)cc2)c1OC	inactive	–
Cc1ccc(Cl)cc1N1CCN(C(=O)c2cnn(-c3ccc(Cl)cc3)c2C2CCNCC2)CC1	inconclusive: 39.8 µM [cytotoxic, single point]	–
COc1cccc(C(=O)Nc2ccccc2SCc2cc(=O)c3cccc(C)c3[nH]2)c1	inconclusive: 1.78 µM [cytotoxic, full curve, poor fit]	–
O=C(Nc1ccc(F)cc1)C1CN(C2CCCC2)C(=O)N1 (configuration not stated)	–	inactive: -0.222% [at 12.5 µM]
CCn1c(CNC(=O)C23CC4CC(CC(C4)C2)C3)nnc1SCC(=O)Nc1ccc(OC)cc1	inconclusive: 15.8 µM [cytotoxic, partial curve]	–
COc1ccc(NC(=O)CSc2nc3ccccc3n2CC(=O)Nc2cccc(C)c2C)cc1	inconclusive: 3.98 µM [cytotoxic, single point]	–
COc1ccc(-c2cc(N3CCCC(NC(=O)c4ccc5[nH]ccc5c4)C3)n[nH]2)cc1 (configuration not stated)	inactive	–
CCn1cc(C(=O)NCCCOC(C)C)c(=O)c2cc(S(=O)(=O)N(C)C3CCCCC3)ccc21	inconclusive: 31.6 µM [cytotoxic, single point]	–
CN1CCC2(CCC1=O)CN(Cc1cccc(Cl)c1Cl)CCN2C (configuration not stated)	inactive	–
N#Cc1nc(/C=C/c2ccc(F)cc2)oc1N1CCCCC1	inconclusive: 28.2 µM [rising, single point]	–
CC1(Cc2ccc3c(c2)OCO3)CCCN(CC(=O)NCc2ccco2)C1 (configuration not stated)	inactive	–
COCCCNC(=O)CCCN1C(=O)COc2ccc(C(=O)COc3cc(C)ccc3C)cc21	inconclusive: 5.01 µM [cytotoxic, full curve]	–
COc1ccc(NC(=O)N2CCC3(CC2)CN(c2ccccc2)C3=O)cc1OC	inactive	–
O=C(NC1CCN(c2cnn(Cc3ccccc3)c(=O)c2)CC1)C1CCCCC1	inactive	–
CCOCCN1C(=O)COC[C@@H]1[C@H](O)c1ccc(NC(=O)COC)cc1	inactive	–
CCOc1ccc(C(c2c(C)[nH]n(-c3ccccc3)c2=O)c2c(C)[nH]n(-c3ccccc3)c2=O)cc1OC	inconclusive: 3.55 µM [rising, full curve, poor fit]	–
O=C(c1ccc2c(c1)OCO2)N1CCC(N2CCOC2=O)CC1	inactive	–
O=C(NCc1noc2ccccc12)N1CCN(c2ccccc2F)CC1	inconclusive: 0.316 µM [rising, full curve, poor fit]	–
O[C@@H]1CC(CNCC2CCCC2)(COc2ccc(C(F)(F)F)cn2)C[C@@H]1O (some centres not stated)	inactive	–
